Laboratory results as given in PubChem BioAssay AID488969 (Vanderbilt High Throughput Screening Facility, 2010).
Values joined by “and” are separate entries in the source; they are usually repeats but may differ in a detail not shown here. Equal entries are not always repeated. Over roughly 110,000 compounds, “z-score” has its median near -0.1; the highest 2% begin near 2. The list shows a part of the results.

Target: Metabotropic glutamate receptor 8 (Rattus norvegicus) (UniProt P70579)
Test: mGluR8 Gi/Go-coupled signaling modulation – cell-based, rat, thallium flux, HTS, primary screen (AID 488969)
Conditions: HEK293 rat mGluR8, GIRK (G protein-gated inwardly rectifying potassium channel) thallium flux, FluoZin2; at 10 µM; stronger effect = higher value; submaximal glutamate (EC20) added with thallium

UniProt P70579, sequence (P70579 whole entry, looked up): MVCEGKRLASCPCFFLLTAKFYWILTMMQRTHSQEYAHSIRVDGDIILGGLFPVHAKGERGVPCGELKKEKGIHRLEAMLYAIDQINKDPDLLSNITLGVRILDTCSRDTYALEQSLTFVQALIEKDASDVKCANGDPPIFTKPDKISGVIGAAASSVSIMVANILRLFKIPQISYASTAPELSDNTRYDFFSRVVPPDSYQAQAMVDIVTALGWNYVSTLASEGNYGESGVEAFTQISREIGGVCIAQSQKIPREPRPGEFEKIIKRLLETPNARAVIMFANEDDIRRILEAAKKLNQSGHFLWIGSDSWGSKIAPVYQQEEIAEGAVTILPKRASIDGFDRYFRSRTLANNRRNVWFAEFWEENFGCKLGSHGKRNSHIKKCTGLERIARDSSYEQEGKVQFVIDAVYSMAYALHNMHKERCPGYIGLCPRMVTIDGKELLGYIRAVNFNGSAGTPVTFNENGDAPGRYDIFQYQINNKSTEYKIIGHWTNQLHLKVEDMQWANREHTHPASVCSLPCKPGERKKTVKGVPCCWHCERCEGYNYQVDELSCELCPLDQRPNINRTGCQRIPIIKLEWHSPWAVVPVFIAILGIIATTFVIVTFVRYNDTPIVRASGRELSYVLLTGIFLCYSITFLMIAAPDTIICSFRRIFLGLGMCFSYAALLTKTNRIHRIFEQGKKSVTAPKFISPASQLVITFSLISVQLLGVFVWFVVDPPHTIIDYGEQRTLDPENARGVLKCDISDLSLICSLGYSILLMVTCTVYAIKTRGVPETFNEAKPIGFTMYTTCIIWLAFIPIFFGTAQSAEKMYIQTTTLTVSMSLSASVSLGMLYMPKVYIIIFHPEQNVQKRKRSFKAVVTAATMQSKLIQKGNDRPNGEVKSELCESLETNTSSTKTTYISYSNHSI

SMILES	z-score
CCOc1ccc(C(=O)N/N=C/c2cccc3cccnc23)cc1	-0.511
Cc1ccc(S(=O)(=O)N(C)CC(=O)OCc2nnc(-c3ccccc3)o2)cc1	-0.611
C[C@H](NC(=O)C1(c2ccccc2)CCN(C(=O)[C@H]2CSCN2C(=O)OC(C)(C)C)CC1)C(=O)O	1.86
CC(CCc1ccccc1)NC(=O)N1CCOCC1 (centres undefined)	-0.733
CC(=O)Nc1ccc(S(=O)(=O)N2CCN(C(=O)N3CCCCCC3)CC2)cc1	-0.0707
CC(C)[C@H](NC(=O)c1ccccc1)C(=O)OCC(=O)N1CCc2ccccc2C1	-0.256
CCN(CC)CCCNC(=O)Cn1nc(-c2ccccc2)ccc1=O	0.099
C=CCn1c(NS(=O)(=O)c2ccccc2)c(S(=O)(=O)c2ccc(C)cc2)c2nc3ccccc3nc21	-0.584
N#CNC(=Nc1ccc(F)cc1)SCc1ccccc1	-0.0345
COc1cc(C(=O)Nc2ccc(S(=O)(=O)N(C)c3ccccc3)cc2)cc(OC)c1OC	-0.33
O=S(=O)(O/N=C1\CCCc2ccccc21)c1ccccc1	-0.18
CN(C)/C=C(/C#N)C(=O)c1cccc(Oc2ccc(C(C)(C)C)cc2)c1	0.845
O=C(Cn1cnc2ccccc2c1=O)N1CCN(c2ccccc2)CC1	-0.0843
COc1ccc(Cl)cc1NC(=O)Cn1nc(-c2ccc(C)cc2)n(C)c1=S	-0.361
Cc1ccc(CCNC(=O)C2CCN(S(=O)(=O)c3cccc4nonc34)CC2)cc1	0.305
CCCN1CCCc2ccccc21	-0.158
CCC(=O)Nc1c(C)n[nH]c1C	-0.256
CCN(NC(=O)C(O)(c1ccc(F)cc1)c1ccc(F)cc1)C(=O)c1ccccc1	0.323
COc1ccc(N2CCN(S(=O)(=O)c3ccc(C(=O)NCc4ccco4)cc3)CC2)cc1	-0.212
N#Cc1cccc(-c2cn(S(=O)(=O)c3ccc(Cl)cc3)nc2N)c1	-0.521
COC(=O)c1ccc(C2C(Oc3ccccc3)C(=O)N2CCc2ccc(OC)c(OC)c2)cc1 (centres undefined)	0.032
COCc1cc(C)nc(SCC(=O)Nc2cccc(C)c2C)c1C#N	-0.122
CCOC(=O)C1CCCN(CCCc2ccccc2)C1 (centres undefined)	-0.0595 and 0.125

SMILES	z-score
CCCCC1=NN2C(=N)CC(=O)N=C2S1	0.0499
Cc1ccccc1N/C(SCc1ccc(Cl)cc1)=C(/C#N)C(=O)NCc1ccco1	-0.0372
CCOc1cc(NC(=O)c2ccco2)c(OCC)cc1NC(=O)COc1ccccc1C	-0.025
COc1ccc(C(=O)NC(=S)Nc2nc(C)c(C(=O)N(C)C)s2)cc1	-0.0547
CCOC(=O)N1CCC(NC(=O)Cn2ncc3c2-c2cc(C)ccc2OC3)CC1	-0.897
COc1cccc(N/C(SCc2ccccc2Cl)=C(/C#N)C(=O)NCc2cccs2)c1	-0.163
COc1cccc(NC(=O)N2CCCC(C(=O)NCc3ccc(F)cc3)C2)c1 (centres undefined)	0.595
CC(=O)Nc1cccc(Oc2ncnc3scc(-c4ccc(C)cc4)c23)c1	-0.497
O=C(c1cncc(Br)c1)N1CCCc2ccccc21	0.0197
CCN1C(=O)/C(=C/c2ccc(C)s2)SC1=Nc1ccc(OC)cc1	-0.29
CN1CCN(NC(=O)C2CC2)CC1	0.0148
CCn1c(CC(=O)Nc2ccccc2F)nnc1SCC(=O)N1CCN(c2ccccc2)CC1	-0.19
Cc1cccc(C)c1NC(=O)CSc1nc(C)c(CC(=O)c2ccc(Br)cc2)c(C)c1C#N	-0.0545
CC(=O)Nc1cc2c(cc1C(=O)C(C)C)OCCO2	-0.0402
CC12CCC(c3nnc(SCc4ccc(Cl)cc4)nc31)C2(C)C (centres undefined)	0.117
CCOc1ccc(NCC2CCOC(C)(C)C2)cc1 (centres undefined)	0.172
O=C(/C=C/c1ccc(Cl)c([N+](=O)[O-])c1)Nc1ccc(N2CCCC2)c(Cl)c1	-0.0736
CSc1nc(-c2ccccc2)nc(N)c1C(C)=O	-0.0854
CCC1CCCCN1C(=S)Nc1ccc(C(C)=O)cc1 (centres undefined)	-0.196
O=C(NC(=S)NNC(=O)c1ccccc1O)c1ccco1	0.576
C=CCN1C(=O)C(Cc2ccc(OCC)cc2)S/C1=N\N=C\c1cccs1 (centres undefined)	0.126
Cc1ccc(N2CCN(C3=NC(=O)/C(=C\c4cccs4)S3)CC2)cc1	-0.279
Cn1c(C(=O)NC2CCCCC2)cc2c(=O)n(C)c3ccccc3c21	-1.32

SMILES	z-score
O=C(CSc1n[nH]c(-c2ccncc2)n1)Nc1ccccn1	-0.983
NC(=O)C1CCN(CCC(=O)Nc2ccc3c(c2)CCC3)CC1	0.152
CC(=O)c1ccc(OCC(O)CN(C)Cc2cccs2)cc1 (centres undefined)	-0.147
CCc1nc(NCCCCCO)c2nnn(Cc3ccccc3F)c2n1	-0.538
O=C(CN1CCN(Cc2ccccc2)CC1)N=Nc1c(O)[nH]c2ccccc12	-0.328
CCCCCCCOC(=O)c1nc(Cl)c(Cl)c(N)c1Cl	-0.235
O=C(NCCCN1CCOCC1)c1ccc(Sc2ccc(F)cc2)c([N+](=O)[O-])c1	-0.511
Cc1cc(C)c(S(=O)(=O)N(C)Cc2cnn(C)c2)c(C)c1	-0.2
Cc1cc(C)n(CC(O)CN2c3ccccc3Sc3ccccc32)n1 (centres undefined)	-0.144
O=C(NCC(=O)N(Cc1cccs1)C(C(=O)NC1CCCC1)c1ccco1)c1cccs1 (centres undefined)	0.741
Cc1cnc(C(=O)Nc2ccccc2-n2cccc2)cn1	1.34
Cn1c(C(=O)OC(C(=O)NC2CCCCC2)c2ccccn2)cc2sccc21 (centres undefined)	-0.474
O=S(=O)(Nc1cccnc1)c1cccc(C(F)(F)F)c1	0.171
O=C(NCC1CCCO1)C1CC(c2ccc(Cl)c(Cl)c2)=NO1 (centres undefined)	-0.164
CS(=O)(=O)Nc1ccc(C(=O)N2CCN(c3ccccc3)CC2)cc1	0.105
O=C(Nc1ccccc1)/C(=C/c1ccc2c(c1)OCO2)NC(=O)c1ccco1	-0.0767
O=C1C2CC=C(Cl)CC2C(=O)N1CC1Cc2ccccc2CO1 (centres undefined)	-0.392
Cc1cc(NC(=O)CSc2nc3sc4c(c3c(=O)n2C)CCCC4)no1	0.943
CN1C(=O)C(CC(N)=O)N(NC(=O)c2ccc(Cl)cc2)C1=S (centres undefined)	-0.0248
C=CCn1c(COc2ccccc2-c2ccccc2)nnc1SCC(=O)NC(=O)NCc1ccco1	-0.409
COc1cc(NC(=O)c2ccccc2NS(=O)(=O)c2ccc(Cl)s2)cc(OC)c1	0.654
O=C1CCCC2=C1C(c1ccsc1)CC(=O)N2c1nnc(SCc2ccccc2)s1 (centres undefined)	-0.68
Cc1nc2scc(-c3cccs3)c2c(=O)n1CC(=O)O	-0.218
